Laboratory results published in PubChem BioAssay AID588342 (National Center for Advancing Translational Sciences (NCATS), 2011).
The whole screen tested about 360,000 compounds, of which about 25,000 (6.9%) were called active. Inconclusive results, whose numbers are uncertain, are shown with a selection of clear calls. The call rests on the fitted dose curve; in most records, active means well fitted inhibition curve with a large enough effect; inconclusive means small, poorly fitted or top-dose-only effect; inactive means flat fitted curve, though single readings scatter. Potencies beside an inconclusive call are fits to weak or partial responses and may not hold up.

These compounds were tested against Luciferin 4-monooxygenase (Photinus pyralis) (UniProt P08659) (assay: qHTS profiling assay for firefly luciferase inhibitor/activator using purifed enzyme and Km concentrations of substrates (counterscreen for miR-21 project)). Settings: purified FLuc, luminescence inhibition; activity change, negative = inhibition: at 57.5 µM (top of the series).
Outline: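 Purified P. pyralis luciferase, 10 nM final, with Km-level 10 uM D-luciferin and 10 uM ATP in 50 mM Tris acetate pH 7.5, 10 mM Mg acetate, 0.01% Tween-20, 0.05% BSA; 6-point qHTS titration about 60 µM downward; luminescence read.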
Further: nearly all actives have a fitted effect of over 55% in size.
Potency means the concentration at half of the fitted maximal effect; tags describe the fitted curve by direction and shape.
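Wherever activity change, negative = inhibition is given: plate controls were vehicle for no effect and reference inhibitor for full effect.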

UniProt P08659, sequence (P08659 whole entry, looked up): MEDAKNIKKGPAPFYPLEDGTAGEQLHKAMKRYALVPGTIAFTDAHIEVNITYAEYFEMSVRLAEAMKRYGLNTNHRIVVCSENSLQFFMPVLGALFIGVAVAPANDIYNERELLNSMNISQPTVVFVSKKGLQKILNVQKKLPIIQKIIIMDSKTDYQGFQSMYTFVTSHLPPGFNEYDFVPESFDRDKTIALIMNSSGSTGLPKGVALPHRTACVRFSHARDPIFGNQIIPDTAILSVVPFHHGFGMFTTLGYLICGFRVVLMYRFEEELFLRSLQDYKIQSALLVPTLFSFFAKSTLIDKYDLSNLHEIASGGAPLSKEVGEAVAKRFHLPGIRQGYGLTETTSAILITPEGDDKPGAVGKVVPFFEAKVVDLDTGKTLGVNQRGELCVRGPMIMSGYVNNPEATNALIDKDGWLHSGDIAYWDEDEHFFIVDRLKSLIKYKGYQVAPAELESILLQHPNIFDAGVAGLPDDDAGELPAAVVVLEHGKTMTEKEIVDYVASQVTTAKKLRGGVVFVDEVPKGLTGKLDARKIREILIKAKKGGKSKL

Which Potency does the source give for Oc1ccc(/C=N/n2c3ccccc3c3ccccc32)cc1 here?
Its Potency is inconclusive: 16.9 µM [inhibitor, single point].

For COc1ccc2c(=O)c(Oc3ccc(C(=O)O)cc3)c(C(F)(F)F)oc2c1, which Potency is on record?
The Potency was inconclusive: 26.9 µM [inhibitor, partial curve, poor fit].

Which “activity change, negative = inhibition” value does the source give for Cc1noc(C)c1-c1nc(CS(=O)(=O)c2ccccc2)no1 here?
Its value is inactive: 5.07%.

Which “activity change, negative = inhibition” value does the source give for CCOC(=O)c1[nH]c(C(=O)O)c(OC(=O)CC)c1C here?
Its value is inactive: -2.34%.

Cc1ccc(C)c(CSc2nnc(C)c(=O)[nH]2)c1 was tested. Which “activity change, negative = inhibition” value did it give?
Its value is inactive: -25.1%.

For O=S(=O)(NCCSc1nnnn1-c1ccccc1)c1cccs1, which Potency is on record?
The Potency was inconclusive: 16.9 µM [inhibitor, partial curve].

How did the “activity change, negative = inhibition” value turn out when CCN(Cc1ccccc1)Cc1c(O)ccc2c(=O)c(-c3ccc(Cl)cc3)coc12 was run?
The value was inactive: -2.94%.

For COc1ccc(C(=O)Nc2cc(OC)c(NC(=O)c3ccco3)cc2OC)cc1, which Potency is on record?
Its Potency is inconclusive: 19 µM [inhibitor, partial curve].

For O=C(O)c1cccc(S(=O)(=O)NCCC(c2ccccc2)c2ccccc2)c1, which Potency is on record?
Its Potency is inconclusive: 37.9 µM [inhibitor, partial curve, poor fit].

CCN(CC)c1ccc(C(=O)N/N=C(\C)c2ccc(O)cc2)cc1 was tested. Which Potency did it give?
The Potency was inconclusive: 7.57 µM [inhibitor, single point].

Cc1cccnc1NC(N)=S was tested. Which “activity change, negative = inhibition” value did it give?
Its value is inactive: -4.91%.

For COC(=O)CSCC(=O)Nc1nnc(-c2ccccc2C)s1, which Potency is on record?
Its Potency is inconclusive: 37.9 µM [inhibitor, partial curve, poor fit].

Which Potency does the source give for CCCSc1nc(NCc2ccco2)c2c3c(sc2n1)COC(C)(C)C3 here?
Its Potency is inconclusive: 19 µM [inhibitor, partial curve, poor fit].

Which “activity change, negative = inhibition” value does the source give for CCOc1ccccc1Oc1coc2cc(O)ccc2c1=O here?
Its value is inactive: -11.1%.

For S=C1NNC2(CC3CC2C2CCCC32)NN1 (stereo not drawn), which Potency is on record?
The Potency was inconclusive: 30.1 µM [inhibitor, partial curve, poor fit].

With COc1ccccc1-c1noc(-c2ccc(NCc3ccco3)c([N+](=O)[O-])c2)n1 as the compound, how does the Potency read?
Its Potency is inconclusive: 15.1 µM [inhibitor, partial curve].

O=C(Nc1cccc(C(F)(F)F)c1)c1cc(S(=O)(=O)N2CCCC2)c[nH]1 was tested. Which Potency did it give?
Its Potency is active: 16.9 µM.

For O=C1CCC(=O)N1OCCCOc1ccc(Br)cc1Cl, which Potency is on record?
The Potency was inconclusive: 10.7 µM [inhibitor, partial curve].

O=C(O)c1cccc(N2C(=O)c3cccc(Oc4ccc(Cl)cc4)c3C2=O)c1 was tested. Which Potency did it give?
The Potency was inconclusive: 37.9 µM [inhibitor, single point].

For Cc1ccc(CNC(=O)NC2CCCCC2)cc1, which Potency is on record?
The Potency was inconclusive: 26.9 µM [inhibitor, partial curve, poor fit].

With O=C(Nc1ccon1)Nc1ccc(Cl)cc1Cl as the compound, how does the Potency read?
The Potency was inconclusive: 37.9 µM [inhibitor, partial curve, poor fit].

Which “activity change, negative = inhibition” value does the source give for CC(=O)NS(=O)(=O)c1ccc(NC(=O)CCC(=O)Oc2ccc(C)cc2)cc1 here?
The value was inactive: -2.05%.

Which Potency does the source give for O=C(CN1C(=O)CSC1=O)Nc1ccc2c(c1)OCCO2 here?
Its Potency is inconclusive: 23.9 µM [inhibitor, single point].

For O=C(Nc1c(C(=O)O)[nH]c2ccccc12)NC1CCCCC1, which Potency is on record?
The Potency was inconclusive: 15.1 µM [inhibitor, partial curve, poor fit].

Cc1ccc(CSC2=NCCN2C(=O)c2ccco2)cc1 was tested. Which Potency did it give?
The Potency was inconclusive: 23.9 µM [inhibitor, partial curve, poor fit].

Which Potency does the source give for Cc1[nH]c2ccccc2c1/C=N/NC(=O)c1cc(-c2ccncc2)nc2ccccc12 here?
Its Potency is inconclusive: 16.9 µM [inhibitor, partial curve].

Which Potency does the source give for O=C(NCc1ccc2c(c1)OCO2)Nc1cccc(Cl)c1 here?
Its Potency is inconclusive: 19 µM [inhibitor, partial curve].

Which Potency does the source give for O=C(Nc1ccccc1O)c1cc2cc(Br)ccc2oc1=O here?
The Potency was inconclusive: 1.2 µM [inhibitor, partial curve, poor fit].

Which Potency does the source give for Cc1ccc(NC(=O)c2cnc(SCC(=O)N3CCOCC3)n(C)c2=O)cc1C here?
The Potency was active: 15.1 µM.

How did the “activity change, negative = inhibition” value turn out when CN(C(=O)CSc1nc(C2CCCC2)nc2c1c(=O)n(C)c(=O)n2C)c1ccccc1 was run?
The value was inactive: -1.07%.

For Cc1cccc(C)c1OC(=O)CSc1nnc(CNC(=O)c2ccccc2)o1, which Potency is on record?
Its Potency is inconclusive: 19 µM [inhibitor, partial curve, poor fit].

Which Potency does the source give for Cc1cc(C)nc(S/C=C/C(=O)c2ccccc2F)n1 here?
Its Potency is active: 1.51 µM.

For C=CCn1c(=N)n(CC(=O)c2cccc([N+](=O)[O-])c2)c2ccccc21, which Potency is on record?
Its Potency is inconclusive: 0.0107 µM [inhibitor, partial curve, poor fit].

With CC(=O)c1c(N2CCN(c3ccccn3)CC2)nc(=S)n(-c2ccccc2)c1C as the compound, how does the “activity change, negative = inhibition” value read?
The value was inactive: -0.625%.

For CC1CCN(C(=O)CSc2nnc(-c3ccccc3)o2)CC1, which “activity change, negative = inhibition” value is on record?
The value was inactive: -13.1%.

With CNS(=O)(=O)c1cccc(C(=O)Nc2cccc(Cl)c2)c1 as the compound, how does the Potency read?
Its Potency is inconclusive: 19 µM [inhibitor, partial curve].

How did the Potency turn out when S=C(NCCc1ccccc1)NC1CCCCCC1 was run?
Its Potency is active: 10.7 µM.

CSc1ccc(/C=N/NC(=O)c2sccc2C)cc1 was tested. Which Potency did it give?
The Potency was active: 0.426 µM.

With COc1ccc(-n2cnc3cc(NCc4ccccn4)ccc32)cc1 as the compound, how does the Potency read?
Its Potency is active: 16.9 µM.

How did the “activity change, negative = inhibition” value turn out when CC(C)CCNS(=O)(=O)c1ccc(N2CCCCS2(=O)=O)cc1 was run?
Its value is inactive: -7.41%.

CC1CCN(c2oc(-c3ccc(F)cc3)nc2C#N)CC1 was tested. Which Potency did it give?
Its Potency is inconclusive: 23.9 µM [inhibitor, single point].

For COc1ccc(-n2nc([N+](=O)[O-])c(=NCCc3ccc(C)cc3)n2O)cc1, which “activity change, negative = inhibition” value is on record?
The value was inactive: -6.11%.

With COc1ccc(/C=N/Nc2cc(N3CCCC3)nc(N3CCCC3)n2)cc1 as the compound, how does the Potency read?
Its Potency is inconclusive: 21.3 µM [inhibitor, partial curve, poor fit].

How did the Potency turn out when COc1cccc(C(=O)/C=C2\NCCc3cc(OC)c(OC)cc32)c1 was run?
The Potency was inconclusive: 37.9 µM [inhibitor, partial curve, poor fit].

With CC(=O)c1ccc(NC(=O)CSc2nnc3ccc(-c4ccc(Br)cc4)nn23)cc1 as the compound, how does the “activity change, negative = inhibition” value read?
Its value is inactive: 3.14%.

For CCOC(=O)/C(C#N)=C/c1ccc(-c2ccsc2C(=O)OC)o1, which “activity change, negative = inhibition” value is on record?
Its value is inactive: -18.3%.

Cc1ccc(NC(=S)N2CCCC(CO)C2)c(C)c1 (stereo not drawn) was tested. Which Potency did it give?
Its Potency is active: 16.9 µM.

For CCc1nnc(NC(=O)CSc2nnc(-c3ccccc3O)o2)s1, which Potency is on record?
The Potency was inconclusive: 23.9 µM [inhibitor, partial curve, poor fit].

How did the Potency turn out when COc1cccc2cc(C(=O)NCc3ccc(Cl)cc3)c(=N)oc12 was run?
The Potency was inconclusive: 2.69 µM [inhibitor, partial curve, poor fit].

How did the Potency turn out when CCOC(=O)N1CCN(c2cc(NCCC(=O)O)c3c4c(onc24)-c2ccccc2C3=O)CC1 was run?
Its Potency is inconclusive: 21.3 µM [inhibitor, single point].

For COc1ccc(S(=O)(=O)NCCc2csc3nc(-c4cccc(C)c4)nn23)cc1F, which “activity change, negative = inhibition” value is on record?
Its value is inactive: -6.7%.

COc1cc(OC)c(C2CC(=O)N3CN(c4ccc(C)cc4)CSC3=C2C#N)cc1OC (stereo not drawn) was tested. Which Potency did it give?
Its Potency is active: 15.1 µM.

Which Potency does the source give for O=C(NC12CC3CC(CC(C3)C1)C2)c1ccc(Br)o1 here?
Its Potency is active: 16.9 µM.

With COc1ccccc1NC(=O)CSc1nnc(NC(=O)Nc2ccc(C)cc2)s1 as the compound, how does the Potency read?
Its Potency is active: 2.13 µM.

Cc1ccc(NC(=O)C(=Cc2ccc(C(=O)O)cc2)C(=O)Nc2ccc(C)cc2C)c(C)c1 was tested. Which Potency did it give?
The Potency was inconclusive: 37.9 µM [inhibitor, single point].

Which Potency does the source give for Cc1ccc(NC(=O)CNCc2cccs2)cc1Br here?
The Potency was inconclusive: 30.1 µM [inhibitor, partial curve, poor fit].

With O=C1/C(=C\c2ccc(-c3ccccc3Cl)o2)SC(=S)N1CC1CCCO1 (stereo not drawn) as the compound, how does the “activity change, negative = inhibition” value read?
The value was inactive: -19.7%.

For Cc1ccc(-n2c(=O)c3c(cnn3C)n(CC(=O)Nc3ccc(C)cc3C)c2=O)cc1, which “activity change, negative = inhibition” value is on record?
The value was inactive: -0.632%.

How did the Potency turn out when COc1cccc2cc(C(=O)NCc3ccco3)c(=Nc3ccc(C(=O)O)cc3)oc12 was run?
Its Potency is inconclusive: 37.9 µM [inhibitor, partial curve, poor fit].

For Oc1ccc(/C=N/n2c(-c3ccco3)csc2=Nc2cccnc2)c(O)c1, which Potency is on record?
Its Potency is inconclusive: 26.9 µM [inhibitor, partial curve, poor fit].

With O=C(Nc1ccc(N2CCOCC2)c(Cl)c1)c1ccccc1F as the compound, how does the Potency read?
The Potency was active: 9.53 µM.

Cc1c(C(=O)N2CCC(C)CC2)c(S(=O)(=O)NCc2ccc(Cl)cc2)c(C)n1C was tested. Which “activity change, negative = inhibition” value did it give?
Its value is inactive: 4.54%.

With Oc1c(Br)cc(Br)cc1C=NCc1ccccc1 as the compound, how does the Potency read?
The Potency was inconclusive: 16.9 µM [inhibitor, partial curve].

With Cc1ccc(NC(=O)C(=S)NCc2ccco2)cc1 as the compound, how does the Potency read?
Its Potency is active: 6.01 µM.

For O=C1c2ccccc2C(Nc2ccc3c(c2)OCCO3)N1Cc1ccco1 (stereo not drawn), which Potency is on record?
Its Potency is inconclusive: 21.3 µM [inhibitor, single point].

c1ccc(CCNc2nc(-c3ccncc3)nc3ccccc23)cc1 was tested. Which “activity change, negative = inhibition” value did it give?
Its value is inactive: -0.87%.

Which Potency does the source give for Cc1cc(C(=O)Nc2ccc(N3CCCC3)c(Cl)c2)ccc1[N+](=O)[O-] here?
The Potency was inconclusive: 15.1 µM [inhibitor, partial curve].

With CC(=O)c1ccc(N2CCN(C(=O)CCC(=O)Nc3ccc4nc(N5CCCCC5)cc(C)c4c3)CC2)cc1 as the compound, how does the Potency read?
Its Potency is inconclusive: 13.5 µM [inhibitor, partial curve].

Cc1ccc(OC(=O)C23CC4CC(CC(C4)C2)C3)c(C)n1 was tested. Which Potency did it give?
Its Potency is inconclusive: 26.9 µM [inhibitor, partial curve, poor fit].

How did the “activity change, negative = inhibition” value turn out when Cc1ccc(C(=O)c2c(N)c(C(=O)Nc3ccccc3Cl)c3ccccn23)cc1 was run?
Its value is inactive: 0.822%.

Cc1ccc(CCNC(=O)c2ccc3c(c2)nc2n3CCCCC2)cc1 was tested. Which Potency did it give?
Its Potency is inconclusive: 26.9 µM [inhibitor, partial curve].

With O=C(NCc1ccon1)C1CCC(=O)N(CCc2ccc(Cl)cc2)C1 (stereo not drawn) as the compound, how does the “activity change, negative = inhibition” value read?
Its value is inactive: 1.1%.

Which Potency does the source give for CCOc1ccc(OCCC(=O)N(CC)CC(=O)NCc2ccc(Cl)cc2)cc1 here?
Its Potency is inconclusive: 26.9 µM [inhibitor, partial curve, poor fit].
